Reference: PubChem BioAssay AID1468 (National Center for Advancing Translational Sciences (NCATS), 2008)
Screen size: about 280,000 compounds; about 1,100 (0.39%) were called active. Inconclusive results, whose numbers are uncertain, are shown with a selection of clear calls. Calls come from the whole dose curve; as a rule, active = well fitted inhibition curve with a large enough effect; inconclusive = small, poorly fitted or top-dose-only effect, or effect the other way; inactive = flat fitted curve, though single readings scatter. Potencies of inconclusive entries are left out as doubtful fits.

Target: Microtubule-associated protein tau (Homo sapiens) (UniProt P10636)
UniProt P10636, sequence (P10636 whole entry, looked up): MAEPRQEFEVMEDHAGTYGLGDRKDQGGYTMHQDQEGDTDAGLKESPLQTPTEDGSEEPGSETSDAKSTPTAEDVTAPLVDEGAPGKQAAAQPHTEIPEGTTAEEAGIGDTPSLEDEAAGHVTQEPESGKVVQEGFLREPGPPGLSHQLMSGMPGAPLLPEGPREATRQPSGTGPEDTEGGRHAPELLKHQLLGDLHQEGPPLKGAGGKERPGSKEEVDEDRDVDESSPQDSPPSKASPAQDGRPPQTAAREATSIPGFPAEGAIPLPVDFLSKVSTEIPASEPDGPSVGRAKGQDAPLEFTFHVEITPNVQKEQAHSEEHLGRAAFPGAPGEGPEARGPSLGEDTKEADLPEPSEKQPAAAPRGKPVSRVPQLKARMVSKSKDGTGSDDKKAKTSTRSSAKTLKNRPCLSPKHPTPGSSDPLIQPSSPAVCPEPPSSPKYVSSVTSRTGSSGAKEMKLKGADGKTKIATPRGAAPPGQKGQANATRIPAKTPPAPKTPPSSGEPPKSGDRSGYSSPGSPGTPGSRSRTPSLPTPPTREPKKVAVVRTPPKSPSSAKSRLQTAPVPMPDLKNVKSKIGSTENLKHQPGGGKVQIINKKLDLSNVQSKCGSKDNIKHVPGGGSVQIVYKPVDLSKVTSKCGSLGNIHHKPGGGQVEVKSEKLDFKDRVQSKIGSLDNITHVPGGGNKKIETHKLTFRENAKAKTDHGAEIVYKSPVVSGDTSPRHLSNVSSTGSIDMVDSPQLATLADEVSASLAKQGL
Assay: qHTS for Inhibitors of Tau Fibril Formation, Fluorescence Polarization; note: nearly all actives have a fitted effect of over 55% in size
Conditions: K18 P301L tau heparin fibrillization, Alexa594 FP, 6 h; series mostly up to 57.7 µM; activity, negative = inhibition: at the top concentration
Method in brief: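 Quantitative HTS format: compounds meet 15 uM recombinant K18 P301L tau and Alexa 594-tau tracer in 100 mM sodium acetate pH 7; 20 uM heparin triggers fibrillization at 37 C over 6 hr; FP gives the signal.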
% is set by controls: 0 for no effect and ±100 for the full control effect; potency is the fitted concentration of half-maximal effect; tags give direction and shape of the fitted curve.

| Compound | Potency | activity, negative = inhibition |
| --- | --- | --- |
| CN(C)S(=O)(=O)c1cccc(NC(=O)COC(=O)c2cccc(S(=O)(=O)N3CCc4ccccc4C3)c2)c1 | inconclusive [inhibitor, partial curve] |  |
| Cc1cccc(Nc2nc(N)c([N+](=O)[O-])c(NCc3ccccc3)n2)c1 | inconclusive [inhibitor, partial curve] |  |
| Cn1c(=O)[nH]c(=O)c2c1nc(CN1CCN(c3ccc(F)cc3)CC1)n2CCc1ccccc1 |  | inactive: -0.685% |
| CC1Cc2cc(S(=O)(=O)CCC(=O)Nc3ccc(Cl)cc3F)ccc2N1C(=O)C1CC1 (centres undefined) |  | inactive: 1.22% |
| Cc1ccc(Cl)cc1NC(=O)CCCN1C(=O)CCn2nc(-c3cn(C)c4ccccc34)cc21 | inconclusive [activator, single point] |  |
| S=c1[nH]c(-c2ccccc2)cn1/N=C/c1cccnc1 |  | inactive: -4.28% |
| C/C(=N\N=C(/N)SC1CC(=O)N(c2ccc(Cl)cc2)C1=O)c1cccs1 (centres undefined) | inconclusive [inhibitor, single point] |  |
| O=[N+]([O-])c1ccc(Sc2ncccn2)c([N+](=O)[O-])c1 | inconclusive [inhibitor, full curve, poor fit] |  |
| Cc1cccc(NC(=O)NCCOCCn2c(=O)oc3ccccc32)c1C |  | inactive: -1.23% |
| CC(=O)Nc1cc(-c2ccccc2)nn1Cc1cccc(Cl)c1 | inconclusive [inhibitor, full curve, poor fit] |  |
| CC(=O)c1cccc(Nc2nc(-c3ccccc3)cs2)c1 | inconclusive [activator, single point] |  |
| COc1cccc(=O)c2c(C)n(-c3ccc(C(=O)O)cc3)c(C)c12 | inconclusive [inhibitor, single point] |  |
| CCCN1C(=O)C(O)(C2CC(=O)CC(C)(C)O2)c2ccccc21 (centres undefined) |  | inactive: 2.33% |
| CC(=O)Nc1ccc(S(=O)(=O)Nc2nc3ccccc3nc2Nc2ccc(N)cc2)cc1 | inconclusive [activator, single point] |  |
| COC(=O)c1ccsc1-n1cc(C#N)c(=O)n(C)c1=O | inconclusive [inhibitor, single point] |  |
| Cc1cc(-c2ccc(S(=O)(=O)NCc3ccccc3Cl)s2)on1 | inconclusive [inhibitor, full curve, poor fit] |  |
| CCOc1ccc(C(=O)Nc2ccc(NC(=O)c3ccco3)c(Cl)c2)cc1Cl | inconclusive [inhibitor, partial curve] |  |
| O=C(CSC1=NC(=O)C(Cc2ccccc2)C(=O)N1)Nc1ncccn1 (centres undefined) |  | inactive: -8.23% |
| Cc1ccc(-c2cc(-c3coc4ccccc4c3=O)c3c(n2)-c2ccccc2OC3)cc1 | inconclusive [inhibitor, single point] |  |
| Cc1c(-c2cccc(NC(=O)Nc3ccccc3)c2)nc2ncccn12 | inconclusive [inhibitor, partial curve] |  |
| N#Cc1ccc(NC(=O)Nc2ccc(Oc3ccc(NC(=O)Nc4ccc(C#N)cc4)cc3)cc2)cc1 | inconclusive [inhibitor, partial curve] |  |
| CCCCCCOC(=O)Nc1ccc(S(=O)(=O)Nc2cccc([N+](=O)[O-])c2)cc1 | inconclusive [inhibitor, partial curve] |  |
| Cc1ccc(C(=O)NCCc2cccs2)cc1 |  | inactive: 4.57% |

| Compound | Potency | activity, negative = inhibition |
| --- | --- | --- |
| CC(C)c1cc(=O)oc2c3c4c(cc12)CCCN4CCC3 | inconclusive [inhibitor, partial curve] |  |
| CC(NC(=O)/C(C#N)=C/c1cn(-c2ccccc2)nc1-c1ccc(F)cc1)c1ccccc1 (centres undefined) | inconclusive [inhibitor, single point] |  |
| S=C(NCc1ccc(Cl)cc1Cl)NC1CCCCC1 |  | inactive: -12.9% |
| Cc1ccc2[nH]c(C(=O)O)c(-c3ccccc3)c2c1 |  | inactive: 8.4% |
| N#Cc1ccccc1Cn1c(SCC(=O)Nc2ccc(F)cc2)nc2ccccc21 | inconclusive [inhibitor, partial curve] |  |
| O=C(COc1ccccc1)Nc1ccc2nc(SCC(=O)N3CCc4ccccc43)sc2c1 | inconclusive [inhibitor, partial curve] |  |
| C=CCn1c(C(c2ccccc2)c2ccccc2)n[nH]c1=S |  | inactive: 1.16% |
| C/C(N)=C(/C#N)C(=O)CSc1nc2ccc(C)cc2[nH]1 |  | inactive: 1.88% |
| CC(=O)/C=C\C1[C@]2(C)CCCC(C)(C)C2CC[C@@]1(C)O (some centres undefined) |  | inactive: -4% |
| O=C(CCc1nc2ccccc2s1)c1ccccc1 |  | inactive: 0.137% |
| N#Cc1cc(-c2ccc(Cl)cc2)cn(Cc2c(Cl)cccc2Cl)c1=O | inconclusive [inhibitor, single point] |  |
| Cn1cc(C(=O)NCCc2ccc(Cl)cc2)c(=O)c2cc(S(=O)(=O)N3CCOCC3)ccc21 |  | inactive: -13.4% |
| CCOC(=O)CN(C(=O)CSc1nnc(CNc2ccc(F)cc2)n1CC)c1ccc(F)cc1 | inconclusive [activator, partial curve] |  |
| O=C(O)CCC/C=C\C/C=C\C=C\[C@@H](O)C/C=C\CCCCCO |  | inactive: 0.253% |
| O=C(N/N=C/c1ccncc1)c1nc2ccccc2c(=O)[nH]1 | inconclusive [inhibitor, full curve] |  |
| COc1ccc(NC(=O)c2c(NCc3ccc(C)o3)sc3c2CCC(C)C3)cc1 (centres undefined) | inconclusive [inhibitor, partial curve] |  |
| COc1cc(NC(=O)C2=C(C)Nc3nnnn3C2c2ccc(SC)cc2)c(OC)cc1Cl (centres undefined) | inconclusive [inhibitor, full curve, poor fit] |  |
| CCOc1ccc(NC2=C(Cl)C(=O)N(Cc3ccccc3)C2=O)cc1 |  | inactive: 0.703% |
| COC(=O)CS(=O)(=O)c1ccsc1C(=O)Nc1ccc(F)cc1 | inconclusive [inhibitor, partial curve] |  |
| COc1ccc(/C(O)=C2/C(=O)C(=O)N(Cc3ccco3)C2c2cccs2)cc1 (centres undefined) | inconclusive [inhibitor, partial curve] |  |
| COc1ccc(S(=O)(=O)Nc2c(C(=O)O)[nH]c3ccccc23)c(OC)c1 |  | inactive: -6.64% |
| CCCCC(=O)Nc1cccc(-c2csc(-c3ccccc3)n2)c1 | inconclusive [inhibitor, partial curve] |  |
| COc1ccccc1NC(=O)c1sc2nc(Cc3ccccc3)cc(C(F)(F)F)c2c1N | inconclusive [inhibitor, single point] |  |

| Compound | Potency | activity, negative = inhibition |
| --- | --- | --- |
| CSc1ccccc1NC(=O)C1=CC(c2ccc3c(c2)OCO3)=NS(=O)(=O)N1C | inconclusive [inhibitor, partial curve] |  |
| CCOc1ccc(C(=O)Nc2ccc(Cc3ccncc3)cc2)cc1Br | inconclusive [activator, single point] |  |
| Cc1cc(N2CCC(C)CC2)nc(SCC(=O)c2ccccc2)n1 |  | inactive: -2.1% |
| Cc1cccc(NC(=O)c2oc3ccc(S(=O)(=O)N4CCCCC4)cc3c2C)c1C |  | inactive: 6.62% |
| Cc1ccc(-c2nnc(Nc3ccc(Cl)cc3)c3ccccc23)cc1S(=O)(=O)NCC1CCCO1 (centres undefined) | inconclusive [inhibitor, partial curve] |  |
| COC(=O)CN1C(=O)S/C(=C/c2ccc(N3CCCCC3)o2)C1=O | inconclusive [inhibitor, single point] |  |
| C=C(C)COc1ccc(-c2[nH]ncc2Oc2ccccc2OC)c(O)c1 | inconclusive [inhibitor, single point] |  |
| Cc1ccc(Nc2c(-c3ccc(N(C)C)cc3)nc3ccccn23)cc1 | inconclusive [activator, single point] |  |
| C=CCn1c(=O)/c(=C2/SC(C)=C(C)N2CC)s/c1=C1/C(=O)N(CC)C(=S)N1c1ccccc1 |  | inactive: 9.37% |
| N#CC1=C(N)OC2=C(CCC/C2=C/c2ccoc2)C1c1ccoc1 (centres undefined) | inconclusive [inhibitor, partial curve] |  |
| COc1ccc(NC(=O)CNS(=O)(=O)c2ccc(Cl)cc2)cc1 |  | inactive: -1.9% |
| CCOC(=O)c1c(NC(=O)Nc2ccccc2)sc(C)c1C |  | inactive: -13.2% |
| COc1cccc(C2=NN(S(C)(=O)=O)C(c3cn(-c4ccccc4)nc3-c3cccs3)C2)c1 (centres undefined) | inconclusive [inhibitor, partial curve] |  |
| COc1ccc(-c2noc(CSc3nnc(-c4ccncc4)n3-c3ccccc3)n2)cc1 |  | inactive: 4.57% |
| C=CCN(C(=O)C1=NN(C2CCS(=O)(=O)C2)C(=O)CC1)c1nc(-c2ccc([N+](=O)[O-])cc2)cs1 (centres undefined) | inconclusive [activator, single point] |  |
| COc1cccc(NC(=O)Cn2c(=O)n(CCCC(=O)NCc3ccc4c(c3)OCO4)c(=O)c3ccccc32)c1 | inconclusive [inhibitor, partial curve] |  |
| Cc1ccc(CNC(=O)c2c(-c3ccccc3F)noc2C)o1 |  | inactive: -3.9% |
| CN(C)S(=O)(=O)c1ccc(NC(=S)NC(=O)Cc2ccccc2)cc1 | inconclusive [inhibitor, partial curve] |  |
| Cc1nc(NC(=O)c2cccc(Cl)c2)sc1-c1csc(Nc2cccc(Cl)c2)n1 | inconclusive [activator, partial curve] |  |
| CCCOc1ccc(-c2nc(-c3ccc(N)cc3)cs2)cc1 | inconclusive [activator, single point] |  |
| CCN(CC)CCn1c(=N)n(CC(O)COc2ccccc2C)c2ccccc21 (centres undefined) |  | inactive: -7.1% |
| FC(F)(F)c1cc(NC(=S)NC(c2ccccc2)c2ccccc2)cc(C(F)(F)F)c1 | inconclusive [inhibitor, single point] |  |
| COc1ccc(CCN2C(=O)CC(Cc3ccccc3)C2=O)cc1OC (centres undefined) |  | inactive: 4.38% |
